In all, about 360,000 compounds went through this assay and about 7,500 (2.1%) were called active. The shares of active, inactive and inconclusive entries below differ from those in the screen. Calls follow the shape of the dose curve; as a rule, active = well fitted cell-killing curve with a large enough effect; inconclusive = small, poorly fitted or top-dose-only effect, or effect the other way, or another doubt; inactive = no such curve, though single readings can be large or run the other way. Potencies of inconclusive entries are left out as doubtful fits.
test: qHTS for induction of synthetic lethality in tumor cells producing 2HG: qHTS for the HT-1080-IDH1KD cell line; settings: HT-1080 IDH1 knockdown viability, ATP luminescence, 48 h; activity, negative = toxicity: at 46.1 µM (top of the series) unless noted;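 as to activity, negative = toxicity: 0% = DMSO wells and -100% = cell-free medium wells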
In short: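 In this qHTS, HT-1080 cells depleted of IDH1 are exposed for 48 h at 37 °C to compound titrations. Toxicity is scored from CellTiter-Glo luminescence, with DMSO as full viability and medium alone as none.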
Potency is read from the fitted curve at half-maximal effect; tags tell the direction and shape of the fitted curve.

| SMILES | Potency | activity, negative = toxicity |
| --- | --- | --- |
| CCCC(=O)N(Cc1cc(=O)[nH]c2ccccc12)c1cccc(C)c1 | inactive | – |
| COc1cc(C(=O)NCCC(=O)NCc2c(F)cc(F)cc2F)cc(OC)c1OC | inactive | – |
| CC(C)(C)c1cc(CN(CCO)CCO)cc(C(C)(C)C)c1O | inconclusive [cytotoxic, single point] | – |
| COc1ccc(CCC(C)NC2CCCCCCC2)cc1 (stereo not drawn) | inconclusive [cytotoxic, partial curve] | – |
| COc1cccc2sc(NNC(=O)c3nc4ccccc4s3)nc12 | inconclusive [cytotoxic, single point] | – |
| COc1ccnc(Oc2cccc(C(F)(F)F)c2)c1C(=O)N/C=N/OCc1ccccc1F | inconclusive [cytotoxic, single point] | – |
| Cc1cc(C)cc(C(O)c2ncc(-c3ccccc3Cl)[nH]2)c1 (stereo not drawn) | active: 20.6 µM | – |
| Cn1nc(C(C)(C)C)cc1C(=O)N1CCCCC1c1cc(C(=O)Nc2ccc3c(c2)OCO3)no1 (stereo not drawn) | inconclusive [cytotoxic, single point] | – |
| CC1CCCCC1NS(=O)(=O)c1ccc(S(=O)(=O)NCc2ccncc2)cc1 (stereo not drawn) | inconclusive [cytotoxic, partial curve] | – |
| O=C(Nc1ccc(Oc2cccc(C(F)(F)F)c2)nc1)c1ccco1 | inconclusive [cytotoxic, partial curve] | – |
| COc1ccc(N2CCN(C(=O)c3ccc(CNS(=O)(=O)c4cc(C)ccc4C)cc3)CC2)cc1 | inconclusive [cytotoxic, partial curve] | – |
| Oc1ccccc1-c1n[nH]c(=S)n1Cc1ccco1 | inconclusive [cytotoxic, single point] | – |
| CCCCN1C(=O)c2ccc(C(=O)OCC(=O)NCCc3ccc(S(N)(=O)=O)cc3)cc2C1=O | inactive | – |
| OC[C@@H]1CN(Cc2ccc(-c3ccccc3)cc2)C[C@H](n2cnc3c(NC4CCC4)ncnc32)O1 | active: 16.4 µM | – |
| CCn1c2ccccc2c2cc(NC(=S)N3CCOCC3)ccc21 | inconclusive [cytotoxic, single point] | – |
| Cc1ccc(S(=O)(=O)NN2C(=O)c3ccccc3NC2C)cc1 (stereo not drawn) | – | inconclusive: 34.4% |
| COc1cccc(NS(=O)(=O)CC23CCC(CC2=O)C3(C)C)c1 (stereo not drawn) | inactive | – |
| O=C(O)C1=C(C(=O)O)C2C=CC1C2 | inactive | – |
| OC(c1cc(F)cc(Cl)c1)c1ncc(-c2cccc(C(F)(F)F)c2)[nH]1 (stereo not drawn) | inconclusive [cytotoxic, single point] | – |
| COc1cc2c(cc1OC)C(C)N(C(=O)c1cc3c(C)cc(C)cc3[nH]1)CC2 (stereo not drawn) | active: 6.51 µM | – |
| CCNC(=S)NNC(=O)c1ccccc1Cl | inactive | – |
| CC1CCC(C(C)C)C(OCC(O)CN2CCCC(C)C2)C1 (stereo not drawn) | inconclusive [cytotoxic, partial curve] | – |
| O=C(CCCOc1ccc(Cl)cc1Cl)N/N=C/c1ccccc1O | inconclusive [cytotoxic, partial curve] | – |
| O=C(N/N=C/c1c[nH]c2ccccc12)C1CC1(c1ccccc1)c1ccccc1 (stereo not drawn) | inconclusive [cytotoxic, single point] | – |
| NC(Cc1ccc(Cl)cc1)c1csc(Nc2nccc(C(F)(F)F)n2)n1 (stereo not drawn) | active: 23.1 µM | – |

| SMILES | Potency | activity, negative = toxicity |
| --- | --- | --- |
| CCC(=O)N1CCN(c2ccc(NC(=S)NC(=O)c3ccc(OC)c([N+](=O)[O-])c3)cc2)CC1 | inactive | – |
| COc1ccc(-c2csc3ncnc(N4CCN(S(=O)(=O)c5ccc(C(C)=O)cc5)CC4)c23)cc1 | inconclusive [cytotoxic, single point] | – |
| COC(=O)C1=C(C(=O)OC)[C@@H]2N(C)c3ccc(OC)cc3[C@@]23C[C@@H](C(=O)OC)N(C(=O)c2ccc(Br)cc2)C3=N1 | inconclusive [cytotoxic, single point] | – |
| N#Cc1c(Nc2ccccc2C(F)(F)F)s[nH]c1=O | inconclusive [cytotoxic, single point] | – |
| COc1cccc(/C=N/n2c(N)nc3ccccc32)c1OC | inconclusive [cytotoxic, single point] | – |
| CSc1nc(SCCN(C)C)c2c3c(sc2n1)COC(C)(C)C3 | inconclusive [cytotoxic, single point] | – |
| COCCNC(=O)c1ccc2c(c1)ncn2-c1cccc(C)c1 | inconclusive [cytotoxic, single point] | – |
| CC(C)c1ccccc1NC(=O)COc1ccc(C(=O)NCCc2ccccc2)cc1 | inconclusive [cytotoxic, single point] | – |
| COc1cc2c(cc1OC)/C(=C/C(=O)c1ccc(OC)c([N+](=O)[O-])c1)NCC2 | inconclusive [cytotoxic, partial curve] | – |
| CCOC(=O)C1=CCN(S(=O)(=O)c2ccccc2Cl)C1c1ccc(Cl)c(Cl)c1 (stereo not drawn) | inconclusive [cytotoxic, single point] | – |
| CCOC(=O)C1=C(C)NC(C)=C(C(=O)OC)C1c1cccc([N+](=O)[O-])c1 (stereo not drawn) | inactive | – |
| c1ccc2c(c1)CCc1c-2nc2ccccc2c1N1CCOCC1 | inactive | – |
| Cc1cccc(NNC(=S)Nc2c(C)cccc2C)c1 | inconclusive [cytotoxic, full curve] | – |
| COC(=O)c1sc(=S)sc1C(=O)OC | active: 31.6 µM | – |
| Nc1nonc1-n1nnc(C(=O)N/N=C/c2ccc(Br)cc2)c1CSC1=NCCS1 | inconclusive [cytotoxic, single point] | – |
| Cc1noc(/C=C/N(C)C)c1S(=O)(=O)N1CCc2ccccc21 | inconclusive [cytotoxic, single point] | – |
| CC(C)(C)NC(=O)C(c1ccc(-c2ccccc2)cc1)n1c(=O)c(-c2ccco2)nc2ccccc21 (stereo not drawn) | inactive | – |
| COc1ccc(N(C(=O)CCl)C(C(=O)NC2CCCCC2)c2cccnc2)cc1 (stereo not drawn) | active: 5.8 µM | – |
| C=CCn1c(=O)c2ccccc2n2c(SC(C)C(N)=O)nnc12 (stereo not drawn) | inactive | – |
| CCNS(=O)(=O)c1ccc(CCC(=O)Nc2ccc3c(c2)OCCO3)cc1 | inactive | – |
| Cc1noc(C)c1CSc1nc2ccccc2n1C | inactive | – |
| C/C(=N\NC(=O)c1ccc(Cl)cc1)c1ccccn1 | inconclusive [cytotoxic, full curve] | – |
| CCOc1ccc(-c2nnc(-c3snc(-c4ccc(F)cc4)c3N=CN(C)C)o2)cc1 | inactive | – |
| COc1cccc(CNc2nc(NCC3CC3)nc3ccsc23)c1OC | active: 11.6 µM | – |
| CCN(CC)CCn1c(=N)n(CCO)c2ccccc21 | inactive | – |

| SMILES | Potency | activity, negative = toxicity |
| --- | --- | --- |
| COc1ccc(Cn2c(C(C)C)nc3sc4ccccc4c(=O)c3c2=O)cc1 | inactive | – |
| CCOC(=O)[C@]12CCC=C1N(Cc1cccc3ccccc13)C(=O)[C@H](CC(=O)N1CCCC1)C2 | inactive | – |
| CCN(CC)c1ccc(C(=O)NNC(=O)CNC(=O)c2cccs2)cc1 | inactive | – |
| O=C1C(Cl)=C(NCCN2CCOCC2)C(=O)c2ccccc21 | active: 18.4 µM | – |
| Cc1ccc2cc(CCNC(=O)C(=O)c3c[nH]c4ccccc34)c(=O)[nH]c2c1 | inconclusive [cytotoxic, full curve, poor fit] | – |
| CC1(C(=O)Nc2cccc(Oc3ccccc3)c2)Cc2c(-c3ccc4c(c3)OCO4)ccnc2O1 (stereo not drawn) | inconclusive [cytotoxic, full curve] | – |
| COC(=O)C(C)N(C(=O)c1cccc2ccccc12)c1c(C)cccc1C (stereo not drawn) | inconclusive [cytotoxic, single point] | – |
| COc1ccc(CS(=O)(=O)/C(Cl)=C(/Cl)C(=O)Nc2ccc(OC)nc2)cc1 | active: 8.2 µM | – |
| C/C(CC(=O)NCCN1CCOCC1)=N\NC(=O)c1ccncc1 | inactive | – |
| c1ccc(SSc2ccccn2)nc1 | inconclusive [cytotoxic, single point] | – |
| COc1cccc2cc(C(=O)C3=C(O)C(=O)N(CCN4CCOCC4)C3c3cccc(Cl)c3)oc12 (stereo not drawn) | inactive | – |
| CCOc1cc(/C=C/C(=O)Nc2ccc(C(=O)NCCN(CC)CC)cc2)ccc1OCC(C)C | inconclusive [cytotoxic, single point] | – |
| CC1=Nc2cc(C(=O)NCCCN3CCOCC3)ccc2Sc2c(C)ccc(C)c21 | active: 20.6 µM | – |
| CC(=O)Nc1ccc(S(=O)(=O)NCCC(=O)OCc2ccccc2F)cc1 | inactive | – |
| O=C(OCc1ccc(F)cc1)c1cc2ccccc2cc1O | inactive | – |
| O=C(CSc1ncnc2c1cnn2CCc1ccccc1)Nc1cccc(C(F)(F)F)c1 | inconclusive [cytotoxic, single point] | – |
| NS(=O)(=O)c1ccc(NC(=S)N2CCN(c3cccc(Cl)c3)CC2)cc1 | inconclusive [cytotoxic, single point] | – |
| CC(C)(C)OC(=O)N[C@@H](Cc1ccccc1)c1nnc(SCC(=O)c2ccc(Cl)cc2)o1 | inconclusive [cytotoxic, single point] | – |
| COc1cc(CN2CCCC(C(=O)Nc3cccc(-n4cccn4)c3)C2)ccc1F (stereo not drawn) | inconclusive [cytotoxic, partial curve] | – |
| COc1ccc(C(=O)NCC(=O)N/N=C/c2cn(C)c3ccccc23)cc1OC | inactive | – |
| C=CCn1c(SCC(=O)Nc2ncc(Cc3ccc(Br)cc3)s2)nnc1-c1ccncc1 | inconclusive [cytotoxic, single point] | – |
| O=C(Nc1ccc(F)cc1)Nc1ccc(S(=O)(=O)N2CCCC2)cc1 | inconclusive [cytotoxic, single point] | – |
| COc1ccc(N2CCN(C(=O)Cn3cnc4c(cnn4-c4ccccc4)c3=O)CC2)cc1 | inactive | – |
